Laboratory results published in PubChem BioAssay AID1645887 (National Center for Advancing Translational Sciences (NCATS), 2021).
“And” between values parts separate entries of the source, which are not always exact repeats. Equal entries are not always repeated. The whole screen tested about 16,000 compounds, of which about 40 (0.2%) were called active. Not shown: some 1% with an inconclusive outcome. Calls follow the shape of the dose curve; as a rule, active = well fitted activation curve with a large enough effect; inconclusive = small, poorly fitted or top-dose-only effect, or another doubt; inactive = no such curve, though single readings can be large or run the other way. This is one part of the list.

Target: Rap guanine nucleotide exchange factor 4 (Homo sapiens) (UniProt Q8WZA2)
Experiment: Validation qHTS for agonist of cAMP-regulated guanine nucleotide exchange factor 4 (EPAC2);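 also: exchange makes BODIPY-GDP fluorescence drop when released from Rap1B; series mostly up to about 150 µM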
Details: EPAC2 Rap1B BODIPY-GDP exchange, fluorescence; activation: stronger effect = higher value
In short: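 Signal normalized against 6.5 mM cAMP as agonist control. Mix of EPAC2 (100 nM), RAP1B-BODIPY-GDP (250 nM) and GDP (50 uM) was read kinetically at 480/540 nm, every 5 min over 30 min, after 5 min room-temperature incubation with compound.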
% is scaled to controls: 0 for no effect and ±100 for the full control effect.

Chain of UniProt Q8WZA2 (Q8WZA2 whole entry, looked up): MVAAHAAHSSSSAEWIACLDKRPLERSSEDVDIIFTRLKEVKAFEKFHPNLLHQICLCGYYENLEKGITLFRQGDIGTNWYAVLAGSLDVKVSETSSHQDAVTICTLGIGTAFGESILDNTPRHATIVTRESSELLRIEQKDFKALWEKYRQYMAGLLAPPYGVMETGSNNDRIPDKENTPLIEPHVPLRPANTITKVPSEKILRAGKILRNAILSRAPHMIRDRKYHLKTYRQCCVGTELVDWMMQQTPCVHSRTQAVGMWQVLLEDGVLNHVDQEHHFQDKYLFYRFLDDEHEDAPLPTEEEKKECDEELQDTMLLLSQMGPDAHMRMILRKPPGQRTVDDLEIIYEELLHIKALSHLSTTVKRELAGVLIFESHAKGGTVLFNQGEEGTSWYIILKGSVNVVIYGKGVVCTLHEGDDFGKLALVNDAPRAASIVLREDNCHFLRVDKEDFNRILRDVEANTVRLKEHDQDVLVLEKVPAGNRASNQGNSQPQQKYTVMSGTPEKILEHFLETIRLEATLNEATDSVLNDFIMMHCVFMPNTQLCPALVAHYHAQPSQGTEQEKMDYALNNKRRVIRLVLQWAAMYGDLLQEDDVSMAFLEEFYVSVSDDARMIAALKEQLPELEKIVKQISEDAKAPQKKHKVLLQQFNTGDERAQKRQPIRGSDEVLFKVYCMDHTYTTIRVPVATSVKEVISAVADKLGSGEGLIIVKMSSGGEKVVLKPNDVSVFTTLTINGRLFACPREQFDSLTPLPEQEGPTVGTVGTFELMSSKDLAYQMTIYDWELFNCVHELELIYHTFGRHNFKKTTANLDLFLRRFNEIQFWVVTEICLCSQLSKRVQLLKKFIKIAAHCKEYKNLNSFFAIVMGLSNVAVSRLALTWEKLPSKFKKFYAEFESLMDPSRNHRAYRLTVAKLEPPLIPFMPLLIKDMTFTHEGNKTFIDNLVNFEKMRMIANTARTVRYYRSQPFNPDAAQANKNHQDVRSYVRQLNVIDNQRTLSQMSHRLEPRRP

activation, inactive:
O=C(CN1Cc2ccccc2OC(c2ccsc2)C1)N1CCN(Cc2ccc3c(c2)OCO3)CC1 (configuration not stated) -22.2%
COc1ncc2nc(C)c(=O)n(CCc3ccccc3)c2n1 -5.49%
CSc1ccc2c(c1)[C@H](N1CCN(C)CC1)Cc1ccccc1S2 1.27%
CCC1CN(CCNC(=O)c2ccc(C#CC(C)(C)O)cc2)Cc2cc(OC)ccc2O1 (configuration not stated) -3.13%
O=S1(=O)CCOC[C@H](CC2CCCCC2)N1Cc1cccc(Cl)c1 -31.3%
Cc1nc2cnc(N3CCOCC3)nc2n(C)c1=O -7.15%
COc1ccc(CNc2ncncc2-c2cccc(NS(C)(=O)=O)c2)c(OC)c1 -14.8%
CN1Cc2c(N)cccc2C(c2ccccc2)C1 (configuration not stated) 17.8%
NC(=O)NNc1ccccc1 3.92% and -18.8%
Cc1cc2c(cc1C)N[C@]1(C[C@H]3CCC(=O)N4CC[C@@H](C1)[C@@H]34)C(=Nc1ccccc1C)N2 -25.8%
CCO[C@H]1[C@H](NC(=O)c2cccnc2)c2ccccc2C12CCN(C(=O)c1ccoc1)CC2 -6.13%
Cc1cccc2c(C(O)c3c[nH]c4c(C)cccc34)c[nH]c12 -35.2%
COc1cc(OC)c2c(c1Cl)OC1(C2=O)C(O)=CC(=O)CC1C (configuration not stated) 7.82%
CC(C)(O)c1ccccc1CC[C@@H](SCC1(CC(=O)O)CC1)c1cccc(/C=C/c2ccc3ccc(Cl)cc3n2)c1 -24.9%
CCCCCCCCCCCC(=O)O[C@H](CC(=O)O)C[N+](C)(C)C -34.6%
COc1ccc(-c2cc(C(=O)N3CCc4c(cnc(C)c4CNC(=O)c4ccsc4)C3)[nH]n2)cc1 -25.8%
Cc1nc2cc(NC(=O)[C@@H]3C[C@@H](Sc4ccccn4)CN3Cc3ccccc3)ccc2s1 5.99%
CC1(C)CC[C@]2(C(=O)O)CC[C@]3(C)C(=CCC4[C@@]5(C)CC[C@H](O)C(C)(C)C5[C@H](O)C[C@]43C)C2C1 (some centres not stated) -43.5%
C=CS(=O)(=O)N(Cc1ccccc1Br)[C@H](CO)CC(C)C -34.8%
COc1ccc2c(=O)c3ccccc3oc2c1 -27%
C[C@@H]1OC(OC2CC[C@@]3(C)C(CC[C@@]4(C)C3CC=C3C5CC(C)(C)CC[C@]5(C(=O)OC5OCC(O)[C@@H](O)[C@@H]5OC5O[C@@H](C)[C@H](O[C@H]6OC(CO)C(O)C(O)C6O)C(O)C5O)C(O)C[C@@]34C)C2(C)C)C(O)C(O)[C@H]1OC1OCC(O)C(O)[C@H]1O (some centres not stated) -21.2%
CN1CCN(c2ncc3nc(-c4ccc(F)cc4)c(=O)n(C4CC4)c3n2)CC1 -10.2%
Nc1nc2ncc(CNc3ccc(C(=O)NC(CCC(=O)O)C(=O)O)cc3)nc2c(=O)[nH]1 (configuration not stated) -1.78%
O=C(NCC1CCC2(CCN(Cc3cccc(-c4ccco4)c3)CC2)O1)c1ccccc1 (configuration not stated) -3.43%
CC(C)=CCc1c(O)cc(O)c2c1O[C@H](c1ccccc1)CC2=O -5.38%
CC(=O)OCC1OC(Oc2cc(OC(C)=O)c3c(=O)cc(-c4ccc(OC(C)=O)cc4)oc3c2)[C@@H](OC(C)=O)C(OC(C)=O)C1OC(C)=O (some centres not stated) -49.6%
CNc1ccccc1C(=O)N1CCc2c([nH]c3ccccc23)C1=O -21.8%
CC1=C(C(=O)O)N2C(=O)[C@@H](NC(=O)C(N)c3ccccc3)[C@H]2SC1 (some centres not stated) -7.93%
COc1ccc2c(=O)c(CC(=O)O)coc2c1 0.765%
N#CCCn1c(=O)c(-c2ccc(F)cc2)nc2cnc(Oc3ccccc3)nc21 -13.1%
CN1CCN(c2ncc3nc(CCc4ccccc4)c(=O)n(C4CC4)c3n2)CC1 10.5%
O=S(=O)(NCc1ccc(F)cc1)c1ccc(Br)cc1Br -32.6%
Nc1ccn([C@@H]2CS[C@H](CO)O2)c(=O)n1 14.6%
COc1ccc(C2Sc3ccccc3N(CCN(C)C)C(=O)[C@@H]2OC(C)=O)cc1 (some centres not stated) -12.4% and 6.35%
CN(C)C(=O)Oc1ccc[n+](C)c1 -2.42% and -26.9%
Nc1c2c(nc3ccccc13)CCCC2O (configuration not stated) -4.49% and -16.8% and 10.3%
COc1ccc(Oc2ncc3nc(-c4cccc(C#N)c4)c(=O)n(Cc4cccc(OC)c4)c3n2)cc1 1.84%
O=C(Cc1ccc2c(c1)OCO2)N1CCOc2ccc(CN3CCOCC3)cc2C1 -13%
Cc1cc(N)c2ccccc2[n+]1CCCCCCCCCC[n+]1c(C)cc(N)c2ccccc21 -2.03% [middle of 4 runs]
c1ccc(Cc2nnc3n2CCN(Cc2cnc(-c4ccccc4)s2)CC3)cc1 -6.49%
CCCCCCCCCCCCC/C=C/[C@@H](O)[C@@H](N)CO -5.19% and -12.2%
COc1ccccc1OCC(O)COC(N)=O (configuration not stated) -5.28% and -9.65%
COCC(=O)N1CCC2(CC1)CCN(C(=O)Nc1ccc(OC)cc1)CC2 -26.1%
NCCO/C=C/[C@H](N)C(=O)O 6.06%
C=Cc1ccc(C(=O)N2CCc3c(cnc(C)c3CNC(=O)c3ccc4c(c3)OCO4)C2)cc1 -11.8%
O=c1c(CCc2ccccc2)nc2cnc(N3CCNCC3)nc2n1C1CC1 -5.23%
Cc1ccc2cccc(O)c2n1 -16.4%
N#Cc1cccc(CN2CCC(=O)N([C@H](CO)Cc3ccccc3)CC2)c1 -6.24%
COc1ccc(CNc2ncncc2-c2ccccc2OC)c(OC)c1 -30.1%
COc1ccc2c(c1)OC(C)CN(CCC(=O)NCC1OCCc3ccccc31)C2 (configuration not stated) -1.47%
CCNC(=O)/C=C/c1cccc(Br)c1 -14.1%
NC1CCN(c2nc3c(cc2F)c(=O)c(C(=O)O)cn3-c2ccc(F)cc2F)C1 (configuration not stated) -9.45%
